{"source": "the supplement of paper PMC11876631", "proteins": {"B1": {"name": "cdsA I7P (protein)", "chain": "MLKYRLPSAFVLIPVVIAALFLLPPVGFAIVTLVVCMLAAWEWGQLSGFTTRSQRVWLAVLCGLLLALMLFLLPEYHRNIHQPLVEISLWASLGWWIVALLLVLFYPGSAAIWRNSKTLRLIFGVLTIVPFFWGMLALRAWHYDENHYSGAIWLLYVMILVWGADSGAYMFGKLFGKHKLAPKVSPGKTWQGFIGGLATAAVISWGYGMWANLDVAPVTLLICSIVAALASVLGDLTESMFKREAGIKDSGHLIPGHGGILDRIDSLTAAVPVFACLLLLVFRTL"}, "B2": {"name": "cdsA V16D (protein)", "chain": "B1 chain with P7I, V16D"}, "B3": {"name": "cdsA I17A (protein)", "chain": "B1 chain with P7I, I17A"}, "B4": {"name": "cdsA V16W (protein)", "chain": "B1 chain with P7I, V16W"}, "B5": {"name": "cdsA V16A (protein)", "chain": "B1 chain with P7I, V16A"}, "B6": {"name": "cdsA L20Q (protein)", "chain": "B1 chain with P7I, L20Q"}, "B7": {"name": "cdsA I17W (protein)", "chain": "B1 chain with P7I, I17W"}, "B8": {"name": "cdsA L20W (protein)", "chain": "B1 chain with P7I, L20W"}, "B9": {"name": "cdsA I17D (protein)", "chain": "B1 chain with P7I, I17D"}, "B10": {"name": "cdsA L20A (protein)", "chain": "B1 chain with P7I, L20A"}, "B11": {"name": "cdsA V16P (protein)", "chain": "B1 chain with P7I, V16P"}, "B12": {"name": "cdsA I17P (protein)", "chain": "B1 chain with P7I, I17P"}, "B13": {"name": "cdsA I17Q (protein)", "chain": "B1 chain with P7I, I17Q"}, "B14": {"name": "cdsA L20D (protein)", "chain": "B1 chain with P7I, L20D"}, "B15": {"name": "cdsA V16Q (protein)", "chain": "B1 chain with P7I, V16Q"}}, "note": "Changes are numbered by the printed parent chain. Names may count otherwise. ± gives the standard deviation of the averaged measurements. Laboratory Escherichia coli strains with one amino-acid change in an essential protein, pooled on minimal glucose agar with carbenicillin or gentamicin at twice the control MIC (plus kanamycin and chloramphenicol for the plasmids), 48 h. Fold change of barcode share against drug-free plates; higher = less susceptible. Active = above 20 in both replicates (the paper's putatively resistant). '<' = one read or none on drug, '>' = one read or none on a drug-free plate. Shares are relative, so most strains fall below 1 when a few take over. Listed are strains with at least 15 reads on both drug-free plates, and hits; most hits rest on fewer reference reads. Replicate rank correlation about 0.5. Edits are read from barcodes."}
{"biological_target": "Escherichia coli (laboratory strain)", "assay": "barcode share on antibiotic plates over drug-free plates; higher = less susceptible", "conditions": "antibiotic: carbenicillin; 2× MIC (3.1 µg/mL)", "experimental": "(§1)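 A pool of E. coli strains, each edited to carry one amino-acid change in an essential protein, was grown for 48 h on minimal glucose agar with or without antibiotic; strain barcodes were sequenced; mean of two replicates.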"}
{"protein": "B1", "fold change of barcode share": "0.22 ± 0.045"}
{"protein": "B2", "fold change of barcode share": "0.334 ± 0.052"}
{"protein": "B3", "fold change of barcode share": "0.946 ± 0.98"}
{"protein": "B4", "fold change of barcode share": "1.19 ± 1.4"}
{"protein": "B5", "fold change of barcode share": "0.4 ± 0.019"}
{"protein": "B6", "fold change of barcode share": "0.227 ± 0.077"}
{"protein": "B7", "fold change of barcode share": "0.305 ± 0.072"}
{"protein": "B8", "fold change of barcode share": "0.271 ± 0.084"}
{"protein": "B9", "fold change of barcode share": "0.232 ± 0.026"}
{"protein": "B10", "fold change of barcode share": "0.258 ± 0.091"}
{"protein": "B11", "fold change of barcode share": "0.276 ± 0.0036"}
{"protein": "B12", "fold change of barcode share": "0.244 ± 0.042"}
{"protein": "B13", "fold change of barcode share": "0.525 ± 0.026"}
{"protein": "B14", "fold change of barcode share": "0.304 ± 0.0099"}
{"protein": "B15", "fold change of barcode share": "0.305 ± 0.069"}
{"biological_target": "Escherichia coli (laboratory strain)", "assay": "barcode share on antibiotic plates over drug-free plates; higher = less susceptible", "conditions": "antibiotic: gentamicin; 2× MIC (MIC 0.45 µg/mL)", "experimental": "as §1"}
{"protein": "B1", "fold change of barcode share": "0.18 ± 0.17"}
{"protein": "B2", "fold change of barcode share": "< 0.00363"}
{"protein": "B3", "fold change of barcode share": "0.00971 ± 0.0089"}
{"protein": "B4", "fold change of barcode share": "0.00704 ± 0.0054"}
{"protein": "B5", "fold change of barcode share": "0.0064 ± 0.0028"}
{"protein": "B6", "fold change of barcode share": "0.00583 ± 0.0054"}
{"protein": "B7", "fold change of barcode share": "0.0104 ± 0.004"}
{"protein": "B8", "fold change of barcode share": "0.0125 ± 0.0056"}
{"protein": "B9", "fold change of barcode share": "0.0812 ± 0.11"}
{"protein": "B10", "fold change of barcode share": "0.00577 ± 0.0055"}
{"protein": "B11", "fold change of barcode share": "0.0048 ± 0.0029"}
{"protein": "B12", "fold change of barcode share": "< 0.00644"}
{"protein": "B13", "fold change of barcode share": "0.00515 ± 0.0046"}
{"protein": "B14", "fold change of barcode share": "0.0098 ± 0.0084"}
{"protein": "B15", "fold change of barcode share": "0.0121 ± 0.0084"}
